# Experimental data: the supplement of paper PMC8728848
# Some of the results follow.
# B1: Regenerating Gene I (Homo sapiens), P05451 (protein)
# chain: MAQTSSYFMLISCLMFLSQSQGQEAQTELPQARISCPEGTNAYRSYCYYFNEDRETWVDADLYCQNMNSGNLVSVLTQAEGAFVASLIKESGTDDFNVWIGLHDPKKNRRWHWSSGSLVSYKSWGIGAPSSVNPGYCVSLTSSTGFQKWKDVPCEDKFSFVCKFKN
# Experiments:
# Experiment in all cases: glycan array binding signal (z-score within array); higher = stronger binding
# Conditions in all cases: glycan notation: IUPAC condensed, linker removed
# [1] = biological target: Gal(b1-3)[Fuc(a1-4)]GlcNAc(b1-3)Gal(b1-4)[Fuc(a1-3)]GlcNAc
# In short: (§1)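 Columns mapping to the same glycan were averaged after glycan names were converted to IUPAC-condensed notation. The data come from 3228 arrays in the Consortium for Functional Glycomics database, limited to those with an available protein sequence. Binding is reported as a within-array Z-score averaged across arrays of one protein sequence and across linkers.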
# [2] = biological target: Gal(b1-3)[GlcNAc(b1-6)]GalNAc
# In short: as §1
# [3] = biological target: Gal(b1-3)[Neu5Ac(a2-6)]GalNAc
# In short: as §1
# [4] = biological target: Gal(b1-3)[Neu5Ac(a2-6)]GlcNAc(b1-6)Gal(b1-4)Glc
# In short: as §1
# [5] = biological target: Gal(b1-3)[Neu5Ac(b2-6)]GalNAc
# In short: as §1
# [6] = biological target: Gal(b1-4)GalNAc(a1-3)[Fuc(a1-2)]Gal(b1-4)GlcNAc
# In short: as §1
# [7] = biological target: Gal(b1-4)GalNAc(b1-3)[Fuc(a1-2)]Gal(b1-4)GlcNAc
# In short: as §1
# [8] = biological target: Gal(b1-4)Glc
# In short: as §1
# [9] = biological target: Gal(b1-4)Glc6S
# In short: as §1
# [10] = biological target: Gal(b1-4)GlcNAc
# In short: as §1
# [11] = biological target: Gal(b1-4)GlcNAc(a1-6)Gal(b1-4)GlcNAc
# In short: as §1
# [12] = biological target: Gal(b1-4)GlcNAc(b1-2)Man(a1-3)[Gal(b1-4)GlcNAc(b1-2)Man(a1-6)]Man(b1-4)GlcNAc(b1-4)GlcNAc
# In short: as §1
# [13] = biological target: Gal(b1-4)GlcNAc(b1-3)Gal(b1-3)GlcNAc
# In short: as §1
# [14] = biological target: Gal(b1-4)GlcNAc(b1-3)Gal(b1-4)Glc
# In short: as §1
# [15] = biological target: Gal(b1-4)GlcNAc(b1-3)Gal(b1-4)GlcNAc
# In short: as §1
# [16] = biological target: Gal(b1-4)GlcNAc(b1-3)Gal(b1-4)GlcNAc(b1-3)Gal(b1-4)GlcNAc
# In short: as §1
# [17] = biological target: Gal(b1-4)GlcNAc(b1-3)Gal(b1-4)[Fuc(a1-3)]GlcNAc(b1-3)Gal(b1-4)[Fuc(a1-3)]GlcNAc
# In short: as §1
# [18] = biological target: Gal(b1-4)GlcNAc(b1-3)GalNAc
# In short: as §1
# [19] = biological target: Gal(b1-4)GlcNAc(b1-3)[Gal(b1-4)GlcNAc(b1-6)]Gal(b1-4)GlcNAc
# In short: as §1
# [20] = biological target: Gal(b1-4)GlcNAc(b1-3)[GlcNAc(b1-6)]Gal(b1-4)GlcNAc
# In short: as §1
# [21] = biological target: Gal(b1-4)GlcNAc(b1-6)Gal(b1-4)GlcNAc
# In short: as §1
# [22] = biological target: Gal(b1-4)GlcNAc(b1-6)Gal(b1-4)GlcNAc(b1-6)GalNAc
# In short: as §1
# [23] = biological target: Gal(b1-4)GlcNAc(b1-6)GalNAc
# In short: as §1
# [24] = biological target: Gal(b1-4)GlcNAc(b1-6)[Gal(b1-3)]GalNAc
# In short: as §1
# [25] = biological target: Gal3S(b1-3)GalNAc
# In short: as §1
# [26] = biological target: Gal3S(b1-3)GlcNAc
# In short: as §1
# [27] = biological target: Gal3S(b1-3)[Fuc(a1-4)]GlcNAc
# In short: as §1
# [28] = biological target: Gal3S(b1-4)Glc
# In short: as §1
# [29] = biological target: Gal3S(b1-4)Glc6S
# In short: as §1
# [30] = biological target: Gal3S(b1-4)GlcNAc
# In short: as §1
# [31] = biological target: Gal3S(b1-4)GlcNAc6S
# In short: as §1
# [32] = biological target: Gal3S(b1-4)[Fuc(a1-3)]Glc
# In short: as §1
# [33] = biological target: Gal3S4S(b1-4)GlcNAc
# In short: as §1
# [34] = biological target: Gal3S6S(b1-4)GlcNAc
# In short: as §1
# [35] = biological target: Gal3S6S(b1-4)GlcNAc6S
# In short: as §1
# [36] = biological target: Gal4S(b1-4)GlcNAc
# In short: as §1
# [37] = biological target: Gal4S6S(b1-4)GlcNAc
# In short: as §1
binder,measurement,setting,value
B1,glycan array binding signal (z-score),[1],1.41
same,glycan array binding signal (z-score),[2],-0.443
same,glycan array binding signal (z-score),[3],0.064
same,glycan array binding signal (z-score),[4],-0.384
same,glycan array binding signal (z-score),[5],-0.082
same,glycan array binding signal (z-score),[6],-0.474
same,glycan array binding signal (z-score),[7],0.083
same,glycan array binding signal (z-score),[8],-0.165
same,glycan array binding signal (z-score),[9],0.447
same,glycan array binding signal (z-score),[10],-0.257
same,glycan array binding signal (z-score),[11],0.071
same,glycan array binding signal (z-score),[12],-0.323
same,glycan array binding signal (z-score),[13],-0.384
same,glycan array binding signal (z-score),[14],-0.273
same,glycan array binding signal (z-score),[15],-0.273
same,glycan array binding signal (z-score),[16],-0.53
same,glycan array binding signal (z-score),[17],-0.384
same,glycan array binding signal (z-score),[18],0.002
same,glycan array binding signal (z-score),[19],-0.248
same,glycan array binding signal (z-score),[20],-0.45
same,glycan array binding signal (z-score),[21],-0.417
same,glycan array binding signal (z-score),[22],-0.332
same,glycan array binding signal (z-score),[23],-0.261
same,glycan array binding signal (z-score),[24],-0.229
same,glycan array binding signal (z-score),[25],-0.486
same,glycan array binding signal (z-score),[26],-0.149
same,glycan array binding signal (z-score),[27],-0.224
same,glycan array binding signal (z-score),[28],0.272
same,glycan array binding signal (z-score),[29],0.631
same,glycan array binding signal (z-score),[30],-0.278
same,glycan array binding signal (z-score),[31],1.1
same,glycan array binding signal (z-score),[32],-0.027
same,glycan array binding signal (z-score),[33],0.222
same,glycan array binding signal (z-score),[34],0.582
same,glycan array binding signal (z-score),[35],0.769
same,glycan array binding signal (z-score),[36],0.291
same,glycan array binding signal (z-score),[37],0.545
